In the RNAGym collection of RNA variant scans (doi:10.1101/gad.245936.114):
Variants at the floor of the assay are shown more often than the library holds them.

B1: tRNA (parent)
chain: CUCUCGGUAGCCAAGUUGGUUUAAGGCGCAAGACUUUAAUUUAUCACUACGAAAUCUUGAGAUCGGGCGUUCGACUCGCCCCCGGGAGAUUUUUUCCUCGAGCAA

Variants of: B1
Test: nonsense suppression (GFP-seq) (ratio to wild type); higher = more function; SUP4oc tRNA, yeast GFP reporter sort-seq
Method in brief: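 Yeast were grown in raffinose/galactose medium with 80 mg/L adenine, each strain bearing a genome-integrated ochre-suppressor tRNA variant from a ~3% random-mutation library, a galactose-driven GFP ochre reporter, and RFP. After sorting into GFP/RFP bins, every bin was sequenced on an Illumina platform at phred ≥30. The GFPSEQ value, a measure of nonsense suppression, is the weighted bin median GFP/RFP relative to the unmutated parent tRNA, using each variant's estimated cell share per bin as the weight. Only variants with ≥100 reads and ≥30 cells were included.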

Variant | nonsense suppression
CUCUCGGUAGACAAGUUGGUUUAAGGCGCAAGACUUUAAUUUAUCACUACGAAAUCUUGAGCUCGGGCGUUCGACUCGCCCCCGGGAGAUUUUUUCCUCGAGCAA [C11A A62C] | ≤ 0.026
CUCUCGGUAGACAAGUUGGUUUAAGGCGCAAGACUUUAAUUUAUCACUACGAAAUCUUGAGAUCGGGCGUUCGACUCGCCCCCGGGGAAUUUUUUCCUCGAGCAA [C11A A87G G88A] | ≤ 0.026
CUCUCGGUAGACAGGUUGGUUUAAGGCGCAAGACUUUAAUUUAUCACUACGAAAUCUUGAAAUCGGGCGUUCGACUCGCCCCCGGGAGAUUUUUUCCUCGAGCAA [C11A A14G G61A] | ≤ 0.026
CUCUCGGUAGACAGGUUGGUUUAAGGCGCAAGACUUUAAUUUAUCACUACGAAAUCUUGAGAUCGGGCGUUCGACUCGUCCCGGGGAGAUUUUUUCCUCGAGCAA [C11A A14G C79U C83G] | ≤ 0.026
CUCUCGGUAGACUAGUUUGUUAAAGGCGCAAGACUUUAAUUUAUCACUACGAAAUCUUGAGAUCGGGCGUUCGACUCGCCCCCGGGAGAUUUUUUCCUCGAGCAA [C11A A13U G18U U22A] | ≤ 0.026
CUCUCGGUAGACAAGUUGGUUUAAGGCGCAAGACUUUAAUUUAUCACUACGAAAUCUUGCGAUCGGGCGUUCGACUCGCCCCCGGGAGAUUUUUUCCUCGAGCAA [C11A A60C] | ≤ 0.026
CUCUCGGUAGAUAAGUUGGUUUAAGGCGCCAGACUUUAAUUUAUCACUACGAAAUCCUGAGAUCGGGCGUACGACCCGCCCCCGGGAGAUUUUUUCCUCGAGCAA [C11A C12U A30C U57C U71A U76C] | ≤ 0.026
CUCUCGGUAGACAAGUUGGUUUAAGGCGGAAGACUUUAAUUUAUCACUACGAAAUCUUGAGAUCGGGCGUUCGACUCGCCCCCGGGAUAUUUUUUCCUCGAGCAA [C11A C29G G88U] | ≤ 0.026
CUCUCGGUAGAAAAGUUGGUUUAAGGCGCAAGACUUUAAUUUAUCACUACGAAAUCUUGAGAUCGGGCGUUCGACUCGCCCCCGGGAGAUUUUUUCCUCGAGCAA [C11A C12A] | ≤ 0.026
CUCUCGGUAGAGAAGUUGGUUUAAGGCGCAAGACUUUAAUUUAUCACUACGAAAUCUUGAGAUCGGGCGUUCGACUCGCCCCCGGGAGAUUUUUUCCUCGAGCAA [C11A C12G] | ≤ 0.026
CUCUCGGUAGACAAGUUGGUUUAAGGCGCAAGACUUUAAUUUAUCACUACGAACUCUCGAGAUCGGGCGUUCGACUCGCCCCCGUGAGAUUUUUUCCUCGAGCAA [C11A A54C U58C G85U] | ≤ 0.026
CUCUCGGUAGACAAGUUGGUUUAAGGCGCAAGGCUUUAAUUUAUCACUACGAAAUCUUGAGAUCGGGCGUUCGACUCGCCCCCGGGAGAUUUUUUCCUCGAGCAA [C11A A33G] | ≤ 0.026
CUCUCGGUAGACAAGUUGGUUUAAGGCGCAAGGCUUUAAUUUAUCACUACGAAAUCUUGAGAUCGGGCGUUCGACUAGCCGCCGGGAGAUUUUUUCCUCGAGCAA [C11A A33G C77A C81G] | ≤ 0.026
CUCUCGGUAGACCAGUUGGUUUAAGGCGCAAGACAUUAAUUUAUCACUACGAAAUCUUGAGAUCGGGCGUUCGACUCGCCCCCGGGAGAUUUUUUCCUCGAGCAA [C11A A13C U35A] | ≤ 0.026
CUCUCGGUAGACAAGUUGGUUUAAGGCGCGAGACUUUAAUUUAUCACUACGAAAUCUUGAGAUCGGGCGUUCGACUCGCCCCCGGGAGAUUUUUUCCUCGAGCAA [C11A A30G] | 0.0331
CUCUCGGUAGACAAGUUGGUUUAAGGCGCAGGACUUUAAUUUAUCACUACGAAAUGUUGAGAUCGGGCGUUCGACUCGCCCCCGGGAGAUUUUUUCCUCGAGCAA [C11A A31G C56G] | ≤ 0.026
CUCUCGGUAGACAAGUUGGUUUAAGGCGCGAGACUUUAAUUUAUCACUACGAAAUCUUGAGAUCGGGCGUUCGACUAGCCCCCGGGAGAUUUUUUCCUCGAGCAA [C11A A30G C77A] | ≤ 0.026
CUCUCGGUAGACAAGUUGGUUUAAGGCGCCAGACUUUAAUUUAUCACUACGAAAUCAUGAGAUCGGGCGUUCGACUCGCCCCCGGGAGAUUUUUUCCUCGAGCAA [C11A A30C U57A] | ≤ 0.026
CUCUCGGUAGAAAAGUGGGUUGAAGGCGCAAGACUUUAAUUUAUCACUACGAAAUCUUGAGAUCGAGCGUUCGACCCGCCCCCGGGAGCUUUUUUCCUCGAGCAA [C11A C12A U17G U22G G66A U76C A89C] | ≤ 0.026
CUCUCGGUAGACAAGUUGGUUUGACGCGCAAGACUUUAAUUUAUCACUACGAAAGCUUGAGAUCGGGCGUUCGACGCGCCCCCGGGAGAUUUUUUCCUCGAGCAA [C11A A23G G25C U55G U76G] | ≤ 0.026
CUCUCGGUAGACAAGUUGGUUUAAGGCGCAAGACUUUAAUUUAUCACUACGAACUCUUAAGAUCGGGCGUCCGACUCGCACCCGGGACAUUUUUUCCUCGAGCAA [C11A A54C G59A U71C C80A G88C] | ≤ 0.026
CUCUCGGUAGACGAGUUGGUUUAAGGCGCAAGACUUUAAUUUAUCACUACGAAAUCUUGAGAUCGGGCGUUCGACUCGCCCGCAGGAGAUUUUUUCCUCGAGCAA [C11A A13G C82G G84A] | ≤ 0.026
CUCUCGGUAGACAAGUUGGUUUAGGGCGGAAGACUUUAAUUUAUCACUACGAAAUCUUGAGAUCGGGCGUUCGACUCGCCCCCGGGAGAUUUUUUCCUCGAGCAA [C11A A24G C29G] | ≤ 0.026
CUCUCGGUAGACAAGUUGGUUUAAGGCGCAAGACUUUAAUUUAUCACUACGAACUCUUAAGAUCGGGCGUCCGACUCGCCCCCGGGACAUUUUUUCCUCGAGCAA [C11A A54C G59A U71C G88C] | ≤ 0.026
CUCUCGGUAGACAAGUUGGUUUAAGGCGCAAGACUUUAAUUUAUCACUACGAAAUCUUGAGAUCGGGCGUUCGGCUCGCCCCCGGGAGAUUUUUUCCUCGAGCAA [C11A A74G] | ≤ 0.026
CUCUCGGUAGACAAGUUGGUUUAAGGCGCAAGAGUUUAAUUUAUCACUACGAAAUCUUGAGAUCGGGCGUUCGACUCACCCCCGGGAUAUUUUUUCCUCGAGCAA [C11A C34G G78A G88U] | ≤ 0.026
CUCUCGGUAGACCAGUUGGUUUAAGGCGUAAGACUUUAAUUUAUCACUACGAAAUCUUGAGAUCGGGCGUUCGACUCGCCUCCGGGAGAUUUUUUCCUCGAGCAA [C11A A13C C29U C81U] | ≤ 0.026
